Experimental data published in patent US20230322953A1 (HARBOUR BIOMED SHANGHAI, published 2023).
Values belong to the binder of their own block, whether it stands above or below them.

Experiments:
human 4-1BB = target: T1, human 4-1BB (human, UniProt Q07011 24-255); assay: flow cytometry, CHO-K1/hu 4-1BB cells
T1 construct: whole, on cells; also called CD137; TNFRSF9

[1] = target: T2, human CTLA4 on CHO-K1/hCTLA4 cells (human, UniProt P16410 36-223); assay: flow cytometry on CHO-K1/hCTLA4 cells, Experiment 2
T2 construct: whole, on cells; CHO-K1 cell line highly expressing human CTLA4; also called human CTLA4 cell

[2] = target: T3, biotinylated human CTLA4-Fc protein (ACRO Biosystems, #CT4-H82F3) (human, UniProt P16410 36-161, biotinylated); assay: competition ELISA: coated human B7-1-Fc, biotinylated human CTLA4-Fc, Experiment 2
T3 construct: Bought protein; also called human CTLA4 protein

human 4-1BB, sequence (Q07011 24-255): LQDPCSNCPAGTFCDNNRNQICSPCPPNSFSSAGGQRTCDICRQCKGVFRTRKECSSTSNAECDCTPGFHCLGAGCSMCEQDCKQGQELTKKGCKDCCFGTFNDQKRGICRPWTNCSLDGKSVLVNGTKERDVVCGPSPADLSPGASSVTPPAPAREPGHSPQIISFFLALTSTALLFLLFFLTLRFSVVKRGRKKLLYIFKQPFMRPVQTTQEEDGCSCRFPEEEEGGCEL

EC50 (human 4-1BB): 0.503 nM
Maximum MFI (human 4-1BB): 105000
B1: PR004279 (bispecific antibody)
chain 1: QVQLVESGGGVVQPGRSLRLSCAASGFTFRSFGMHWVRQAPGKGLEWVAVISYDASNEYYADSVKGRFIISRDNSKDTLYLQMNSLRAGDTAVYYCAKGGGLRWYFAYWGQGTLVTVSSASTKGPSVFPLAPSSKSTSGGTAALGCLVKDYFPEPVTVSWNSGALTSGVHTFPAVLQSSGLYSLSSVVTVPSSSLGTQTYICNVNHKPSNTKVDKKVEPKSC
chain 2: EIVMTQSPATLSVSPGERATLSCRASQSISSNLGWYQQKPGQAPRLLIYGASTRATGIPARFSGSGSGTEFTLTISSLQSEDFAVYYCQQYQSWPPLTFGGGTKVEIKRTVAAPSVFIFPPSDEQLKSGTASVVCLLNNFYPREAKVQWKVDNALQSGNSQESVTEQDSKDSTYSLSSTLTLSKADYEKHKVYACEVTHQGLSSPVTKSFNRGECEPKSSDKTHTPPPPPEVQLVESGGGVVQPGGSLRLSCAASGFTFSNYAMTWVRQAPEKGLEWVSSISGSGVSTYYADSVKGRFTISRDNSKNTLYLQMTRLTAEDTAVYFCAKEGSSETDDHYYNVDVWGQGTTVTVSS[human IgG1 Fc with changes not given here]
notes: PR002408 Fab, PR001760 VH, L1 H1_15, L2 human IgG1 hinge (C220S), human IgG1 (L234A, L235A); also called B7H4x4-1BB bispecific antibody, Fab-HCAb symmetric structure (1)

EC50 (human 4-1BB): 4.25 nM
Maximum MFI (human 4-1BB): 92400
B2: PR005189 (bispecific antibody)
chain 1: B1 chain 1
chain 2: EIVMTQSPATLSVSPGERATLSCRASQSISSNLGWYQQKPGQAPRLLIYGASTRATGIPARFSGSGSGTEFTLTISSLQSEDFAVYYCQQYQSWPPLTFGGGTKVEIKRTVAAPSVFIFPPSDEQLKSGTASVVCLLNNFYPREAKVQWKVDNALQSGNSQESVTEQDSKDSTYSLSSTLTLSKADYEKHKVYACEVTHQGLSSPVTKSFNRGECEVQLVESGGGVVQPGGSLRLSCAASGFTFSNYAMTWVRQAPEKGLEWVSSISGSGVSTYYADSVKGRFTISRDNSKNTLYLQMTRLTAEDTAVYFCAKEGSSETDDHYYNVDVWGQGTTVTVSS[human IgG1 Fc with changes not given here]
notes: PR002408 Fab, PR001760 VH, no first linker, L2 human IgG1 hinge (C220S), human IgG1 (L234A, L235A); also called B7H4x4-1BB bispecific antibody, Fab-HCAb symmetric structure (1)

EC50 (human 4-1BB): 4 nM
Maximum MFI (human 4-1BB): 71200
B5: PR007165 (bispecific antibody, human IgG1)
light: EIVMTQSPATLSVSPGERATLSCRASQSISSNLGWYQQKPGQAPRLLIYGASTRATGIPARFSGSGSGTEFTLTISSLQSEDFAVYYCQQYQSWPPLTFGGGTKVEIKRTVAAPSVFIFPPSDEQLKSGTASVVCLLNNFYPREAKVQWKVDNALQSGNSQESVTEQDSKDSTYSLSSTLTLSKADYEKHKVYACEVTHQGLSSPVTKSFNRGEC
heavy: QVQLVESGGGVVQPGRSLRLSCAASGFTFRSFGMHWVRQAPGKGLEWVAVISYDASNEYYADSVKGRFIISRDNSKDTLYLQMNSLRAGDTAVYYCAKGGGLRWYFAYWGQGTLVTVSSASTKGPSVFPLAPSSKSTSGGTAALGCLVKDYFPEPVTVSWNSGALTSGVHTFPAVLQSSGLYSLSSVVTVPSSSLGTQTYICNVNHKPSNTKVDKKVEPKSCEVQLVESGGGVVQPGGSLRLSCAASGFTFSNYAMTWVRQAPEKGLEWVSSISGSGVSTYYADSVKGRFTISRDNSKNTLYLQMTRLTAEDTAVYFCAKEGSSETDDHYYNVDVWGQGTTVTVSS[human IgG1 Fc with changes not given here]
notes: PR002408 Fab, PR001760 VH, no first linker, L2 human IgG1 hinge (C220S), human IgG1 (L234A, L235A); also called B7H4x4-1BB bispecific antibody, Fab-HCAb symmetric structure (2)

EC50 (human 4-1BB): 0.773 nM
Maximum MFI (human 4-1BB): 98200
B6: PR003488 (bispecific antibody, human IgG1, kappa)
light: B5 light
heavy: QVQLVESGGGVVQPGRSLRLSCAASGFTFRSFGMHWVRQAPGKGLEWVAVISYDASNEYYADSVKGRFIISRDNSKDTLYLQMNSLRAGDTAVYYCAKGGGLRWYFAYWGQGTLVTVSSASTKGPSVFPLAPSSKSTSGGTAALGCLVKDYFPEPVTVSWNSGALTSGVHTFPAVLQSSGLYSLSSVVTVPSSSLGTQTYICNVNHKPSNTKVDKKV[human IgG1 Fc with changes not given here]EPKSSDKTHTPPPPPRTEVQLVESGGGVVQPGGSLRLSCAASGFTFSNYAMTWVRQAPEKGLEWVSSISGSGVSTYYADSVKGRFTISRDNSKNTLYLQMTRLTAEDTAVYFCAKEGSSETDDHYYNVDVWGQGTTVTVSSGGGGSEVQLVESGGGVVQPGGSLRLSCAASGFTFSNYAMTWVRQAPEKGLEWVSSISGSGVSTYYADSVKGRFTISRDNSKNTLYLQMTRLTAEDTAVYFCAKEGSSETDDHYYNVDVWGQGTTVTVSS
notes: PR002408 IgG with two PR001760 VH in tandem at C-terminus of heavy chain (first linker H1_15-RT, second GS_5), human IgG1 (L234A, L235A); also called B7H4x4-1BB bispecific antibody, IgG-VH(2) hexavalent symmetric structure (7)

Further lines, the binder ahead of its results:

B3: HER2xCTLA4 bispecific antibody molecule PR001589 (bispecific antibody, human IgG1, kappa)
light: EVQLVESGGGLIQPGGSLRLSCAVSGFTVSKNYMSWVRQAPGKGLEWVSVVYSGGSKTYADSVKGRFTISRDNSKNTLYLQMNSLRAEDTAVYYCARAVPHSPSSFDIWGQGTMVTVSSKLEPKSSDKTHTPPPPPASDIQMTQSPSSLSASVGDRVTITCKASQDVSIGVAWYQQKPGKAPKLLIYSASYRYTGVPSRFSGSGSGTDFTLTISSLQPEDFATYYCQQYYIYPYTFGQGTKVEIKRTVAAPSVFIFPPSDEQLKSGTASVVCLLNNFYPREAKVQWKVDNALQSGNSQESVTEQDSKDSTYSLSSTLTLSKADYEKHKVYACEVTHQGLSSPVTKSFNRGEC
heavy: EVQLVESGGGLVQPGGSLRLSCAASGFTFTDYTMDWVRQAPGKGLEWVADVNPNSGGSIYNQRFKGRFTLSVDRSKNTLYLQMNSLRAEDTAVYYCARNLGPSFYFDYWGQGTLVTVSS[human IgG1 constant region not given here]
notes: PR000672 IgG (pertuzumab analog), PR000184 VH at N-terminus of light chain; linker KL-H1_15-AS; Fc human IgG1
EC50 [1]: 9.39 nM
Maximum MFI [1]: 1870 MFI
IC50 [2]: 2.59 nM

B4: PR003487 (bispecific antibody, human IgG1, kappa)
light: B5 light
heavy: QVQLVESGGGVVQPGRSLRLSCAASGFTFRSFGMHWVRQAPGKGLEWVAVISYDASNEYYADSVKGRFIISRDNSKDTLYLQMNSLRAGDTAVYYCAKGGGLRWYFAYWGQGTLVTVSSASTKGPSVFPLAPSSKSTSGGTAALGCLVKDYFPEPVTVSWNSGALTSGVHTFPAVLQSSGLYSLSSVVTVPSSSLGTQTYICNVNHKPSNTKVDKKV[human IgG1 Fc with changes not given here]EPKSSDKTHTPPPPPRTEVQLVESGGGVVQPGGSLRLSCAASGFTFSNYAMTWVRQAPEKGLEWVSSISGSGVSTYYADSVKGRFTISRDNSKNTLYLQMTRLTAEDTAVYFCAKEGSSETDDHYYNVDVWGQGTTVTVSSEVQLVESGGGVVQPGGSLRLSCAASGFTFSNYAMTWVRQAPEKGLEWVSSISGSGVSTYYADSVKGRFTISRDNSKNTLYLQMTRLTAEDTAVYFCAKEGSSETDDHYYNVDVWGQGTTVTVSS
notes: PR002408 IgG with two PR001760 VH in tandem at C-terminus of heavy chain (first linker H1_15-RT, second none), human IgG1 (L234A, L235A); also called B7H4x4-1BB bispecific antibody, IgG-VH(2) hexavalent symmetric structure (7)
EC50 (human 4-1BB): 0.755 nM
Maximum MFI (human 4-1BB): 95700

B7: HER2xCTLA4 bispecific antibody molecule PR001588 (bispecific antibody, human IgG1, kappa)
light: DIQMTQSPSSLSASVGDRVTITCKASQDVSIGVAWYQQKPGKAPKLLIYSASYRYTGVPSRFSGSGSGTDFTLTISSLQPEDFATYYCQQYYIYPYTFGQGTKVEIKRTVAAPSVFIFPPSDEQLKSGTASVVCLLNNFYPREAKVQWKVDNALQSGNSQESVTEQDSKDSTYSLSSTLTLSKADYEKHKVYACEVTHQGLSSPVTKSFNRGEC
heavy: EVQLVESGGGLIQPGGSLRLSCAVSGFTVSKNYMSWVRQAPGKGLEWVSVVYSGGSKTYADSVKGRFTISRDNSKNTLYLQMNSLRAEDTAVYYCARAVPHSPSSFDIWGQGTMVTVSSKLEPKSSDKTHTPPPPPRTEVQLVESGGGLVQPGGSLRLSCAASGFTFTDYTMDWVRQAPGKGLEWVADVNPNSGGSIYNQRFKGRFTLSVDRSKNTLYLQMNSLRAEDTAVYYCARNLGPSFYFDYWGQGTLVTVSS[human IgG1 constant region not given here]
notes: HER2 IgG PR000672 (pertuzumab analog), PR000184 VH at N-terminus of heavy chain; linker KL-H1_15-RT; Fc human IgG1
EC50 [1]: 7.26 nM
Maximum MFI [1]: 2170 MFI
IC50 [2]: 2.2 nM

B8: HER2xCTLA4 bispecific antibody molecule PR001590 (bispecific antibody, human IgG1, kappa)
light: B3 light
heavy: B7 heavy
notes: Structure 9 2xVH-IgG; PR000672 IgG (pertuzumab analog), PR000184 VH; first linker KL-H1_15-AS, second linker KL-H1_15-RT; Fc human IgG1
EC50 [1]: 5.44 nM
Maximum MFI [1]: 1050 MFI
IC50 [2]: 1.99 nM

B9: HER2xCTLA4 bispecific antibody molecule PR001591 (bispecific antibody, human IgG1, kappa)
light: B7 light
heavy: EVQLVESGGGLIQPGGSLRLSCAVSGFTVSKNYMSWVRQAPGKGLEWVSVVYSGGSKTYADSVKGRFTISRDNSKNTLYLQMNSLRAEDTAVYYCARAVPHSPSSFDIWGQGTMVTVSSKLEPKSSDKTHTPPPPPRTEVQLVESGGGLVQPGGSLRLSCAASGFTFTDYTMDWVRQAPGKGLEWVADVNPNSGGSIYNQRFKGRFTLSVDRSKNTLYLQMNSLRAEDTAVYYCARNLGPSFYFDYWGQGTLVTVSSASTKGPSVFPLAPSSKSTSGGTAALGCLVKDYFPEPVTVSWNSGALTSGVHTFPAVLQSSGLYSLSSVVTVPSSSLGTQTYICNVNHKPSNTKVDKKV[human IgG1 Fc with changes not given here]
notes: PR000672 IgG (pertuzumab analog), PR000184 VH at N-terminus of heavy chain; linker KL-H1_15-RT; Fc human IgG1 (S239D, I332E)
EC50 [1]: 5.15 nM
Maximum MFI [1]: 2070 MFI
IC50 [2]: 2.7 nM

B10: HER2xCTLA4 bispecific antibody molecule PR001592 (bispecific antibody, human IgG1, kappa)
light: B3 light
heavy: EVQLVESGGGLIQPGGSLRLSCAVSGFTVSKNYMSWVRQAPGKGLEWVSVVYSGGSKTYADSVKGRFTISRDNSKNTLYLQMNSLRAEDTAVYYCARAVPHSPSSFDIWGQGTMVTVSSKLEPKSSDKTHTPPPPPRTEVQLVESGGGLVQPGGSLRLSCAASGFTFTDYTMDWVRQAPGKGLEWVADVNPNSGGSIYNQRFKGRFTLSVDRSKNTLYLQMNSLRAEDTAVYYCARNLGPSFYFDYWGQGTLVTVSSASTKGPSVFPLAPSSKSTSGGTAALGCLVKDYFPEPVTVSWNSGALTSGVHTFPAVLQSSGLYSLSSVVTVPSSSLGTQTYICNVNHKPSNTKVDKKV[human IgG1 Fc with changes not given here]
notes: Structure 9 2xVH-IgG; PR000672 IgG (pertuzumab analog), PR000184 VH; first linker KL-H1_15-AS, second linker KL-H1_15-RT; Fc human IgG1 (S239D, I332E)
EC50 [1]: 10.4 nM
Maximum MFI [1]: 1300 MFI
IC50 [2]: 3.21 nM
